From PMC12040169 (PLOS Biology, 2025)
Some of the results follow.

What follows are compounds tested on T1, C. trachomatis L2/434/Bu expressing GFP (CTL2-GFP). Conditions: total inclusion area; 28.5 h, 10 µM; inhibitor.
T1 construct: L2/434/Bu GFP intracellular growth in HeLa cells
Design: species or system HeLa; C. trachomatis total inclusion area by high-content imaging, normalised to DMSO
Summary of the method: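 Host cell viability was gauged from Hoechst-stained nuclei counts, while chlamydial growth was taken from total inclusion area and inclusion number per well. Cells were fixed and imaged by high-content microscopy once bulk GFP and resorufin fluorescence had been measured.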

| SMILES | % of control remaining |
| --- | --- |
| Cc1ccccc1OCCCn1cncc1-c1cnn(C)c1 [CBK281762] | 89.8962 |
| Cn1cc(C2c3ccccc3C(=O)N2CC(=O)O)c2ccccc21 (stereo not drawn) [CBK286555] | 89.2564 |
| CCCCCSc1c(C#N)nc(N2CCOCC2)c2c1CC(C)(C)OC2 [CBK021748] | 69.2741 |
| CCOc1ccc(NC(=O)C2C3c4ccccc4C(c4ccccc43)C2C(=O)O)cc1 (stereo not drawn) [CBK261544] | 110.35 |
| COc1cccc2cc(C(=O)C3=C(O)C(=O)N(CCN4CCOCC4)C3c3cccc(Cl)c3)oc12 (stereo not drawn) [CBK266599] | 107.439 |
| COc1ccc2nc(Nc3nc4c(s3)C(=O)CC(C)(C)C4)sc2c1 [CBK287481] | 113.86 |
| CC(C)(C)OC(=O)Nc1ccc(Nc2cc(-c3ccc(F)c(F)c3)ncn2)cc1 [CBK091143] | 126.956 |
| C=CCNc1nccnc1-c1ccc(CO)cc1 [CBK036870] | 95.5817 |
| CC(=O)c1cc(C(=O)NC(c2ccccc2)c2cccnc2)cs1 (stereo not drawn) [CBK282514] | 118.339 |
| CC(C)c1nc(CCN(C)C(=O)NCc2cc(-c3ccco3)on2)no1 [CBK307443] | 108.074 |
| CC(NS(=O)(=O)N(C)C)c1ccccc1 (stereo not drawn) [CBK263819] | 49.839 |
| O=C(Cc1nnn[nH]1)N1CCC(Cn2cncn2)(C2CCCCC2)CC1 [CBK136796] | 94.0488 |
| CN(CC(=O)NCc1ccco1)C1CCCCC1 [CBK304471] | 60.4105 |
| Cc1nc(C2CC(O)C2)cc(N(C)CCOc2cccc(Cl)c2)n1 (stereo not drawn) [CBK307691] | 102.95 |
| O=C(O)c1ccccc1C(=O)NCCC1=CCCCC1 [CBK287113] | 96.812 |
| O=C1CSC(c2ccc(F)cc2Cl)c2c[nH]nc2N1 (stereo not drawn) [CBK287935] | 55.7336 |
| NNC(=O)c1c(NC(=O)c2ccccc2)sc2c1CCC2 [CBK262516] | 125.916 |
| CCN(CC)Cc1c(O)ccc2c(C#N)c(C)n(-c3ccccc3)c12 [CBK261527C] | 89.4949 |
| CN(C)CCNC(=O)c1cc(-c2cccnc2)nc2c(Cl)cccc12 [CBK267761] | 87.6023 |
| Fc1ccc2nc(Nc3nc(-c4ccncc4)cs3)sc2c1 [CBK287487] | 104.31 |

| SMILES | % of control remaining |
| --- | --- |
| Nc1ccc2c(-c3ccsc3)ccnc2n1 [CBK067637] | 50.7059 |
| COc1cccc2cc(C3CN(C(=O)C(C)(C)NC(=O)OC(C)(C)C)CC3C(=O)O)oc12 (stereo not drawn) [CBK001348] | 60.73 |
| O=CN1CCc2c([nH]c3ccccc23)C12CCN(CC1CC1)CC2 [CBK040315] | 101.552 |
| NC(=O)C1(Cc2ccc(-c3ccccc3)cc2)CCN(C(=O)c2ccccc2)CC1 [CBK285789] | 95.734 |
| CC(Oc1ccccc1)C(=O)Nc1cccc(C#N)c1 (stereo not drawn) [CBK264062] | 108.228 |
| CC(=O)N1CCC[C@H]2NC(=O)CNC(=O)C3(C/C=C/C[C@H]21)CCN(C(=O)CCC(=O)O)CC3 [CBK292174] | 110.489 |
| O=C(Nc1c(F)cc(F)cc1OC1CCNCC1)c1ccnc2ccccc12 [CBK050277T] | 92.7316 |
| Cc1ccc(OCc2occc2C(=O)N2CCCn3cncc3C2)cc1 [CBK306618] | 74.7757 |
| COC(=O)c1c(NC(=O)CC2SCC(C(=O)OC)NC2=O)sc2c1CCCC2 (stereo not drawn) [CBK263834] | 93.2695 |
| COC(=O)C1=COC(C)C2CN3CCC4(NC(=O)c5c4ccc(OC)c5OC)C3CC12 (stereo not drawn) [CBK003303] | 97.6781 |
| COCCOCC(=O)N1CCC2(C/C=C/C[C@H]3COCC[C@H]3NC(=O)CNC2=O)CC1 [CBK292170] | 104.119 |
| CC(=O)Nc1ccc2c(CSc3nnc(-c4ccco4)n3C)cc(=O)oc2c1 [CBK297534] | 105.158 |
| Cc1ccc(S(=O)(=O)NC2(C(F)(F)F)NC(=O)N(c3ccc(F)c(Cl)c3)C2=O)cc1 (stereo not drawn) [CBK267473] | 98.6134 |
| Cc1ccc2c(c1)OC1(CCN(C(=O)c3c(-c4ccccc4)nc4ccccn34)CC1)CC2=O [CBK167871] | 93.582 |
| CCCCC1CCC(C(=O)Nc2cc(C)c3c(=O)oc4ccccc4c3n2)CC1 (stereo not drawn) [CBK291136] | 81.2406 |
| CCOC(=O)CCCNC(=O)N1CCCC(C(=O)N(CC)CC)C1 (stereo not drawn) [CBK156158] | 100.002 |
| O=c1[nH]c2ccccc2nc1-c1cc(Br)ccc1NCc1ccccc1 [CBK088071] | 102.04 |
| CN1CC(C(=O)N(C)Cc2nc(-c3ccccc3)no2)NC1=O (stereo not drawn) [CBK306727] | 49.1289 |
| COc1cc2c(cc1OC)CN(C(=O)Cn1cc(C)c(=O)[nH]c1=O)CC2 [CBK122745] | 100.995 |
